Laboratory results taken from the supplement of paper PMC3334620.
In all, about 33,000 sequences were measured (“E-score (-0.5 to 0.5)”: median about -0.056, highest 2% from about 0.38 on). The list shows a part of the results.

What follows are sequences tested against Stb4 (UniProt P50104) (assay: PBM E-score (8-mer binding enrichment) (E-score (-0.5 to 0.5)); higher = stronger / more preferred TF binding; most listed sequences are background and not binding sites). Conditions: protein concentration: 200 nM; construct: GST-DNA-binding domain.
In short: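 For each ungapped eight-base word taken together with its reverse complement, the Universal PBM Analysis Suite assigned an E-score. Binding data came from GST-tagged yeast transcription factors, applied at about 100-200 nM, on universal all-10-mer Agilent arrays made double-stranded by primer extension. Fluorescent anti-GST marked bound protein, and scans were normalised with masliner.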

Sequence	PBM E-score
GTAAGTAA	0.0969
TGAAGTAA	-0.0839
AAAAGATC	-0.0074
AGCGCCAC	-0.135
ATCAGGAG	-0.0915
GAGCTCCC	0.0963
ACTTAACC	0.0933
CGGCGACC	0.235
AGCTTCAC	-0.221
CTTATTCC	0.151
TACCTGGA	-0.0158
GCAATCAA	-0.142
ATTACCCC	0.133
CCGCGACA	0.106
CTAAATAA	-0.0476
TACAATGA	-0.264
GGTGAGGA	-0.0535
AAGCACGT	-0.0987
CGGTCATA	0.0682
ATTTGGAC	-0.0985
GCTACTAC	0.0879
TAGCAAGA	-0.146
GTCCTGAA	-0.197
AATCCAGA	-0.0418
ATGCGGCG	0.0381

Sequence	PBM E-score
CAGAAGAA	-0.167
AAACTGTT	-0.0354
AACTCGTG	0.0628
CTGGACAC	-0.0889
AACATTCT	-0.0796
AGCAACTG	-0.0213
ACTAAAAT	-0.0643
TCGGACGA	0.302
CTATTCCA	-0.151
AATCGCCC	-0.0803
AGGATCAT	-0.197
GCGGGGTA	0.106
AGCCCGGG	0.304
CACCGCTG	-0.203
AGAACTAC	0.0216
GAAGCCAA	0.112
ATTAATGC	-0.0403
CGCAAAGA	-0.00111
GCTGCTCA	-0.262
ATGGATCG	0.196
CACAAGAG	-0.073
GAATGCAC	0.026
ACCCGCTC	0.0516
ATAGGGAA	0.0223
GGCACTCA	-0.187

Sequence	PBM E-score
ATGGCTCG	-0.0233
CAGCATGC	-0.132
TGCGCGCA	-0.0292
CTCACTCA	-0.242
ATCCTTCC	0.18
CGACAAGA	0.0203
ACCACCGC	-0.0347
CAATTACA	-0.0962
CATAGAGA	-0.128
CCGGACAG	0.255
CCCGCCTC	0.163
CCCGGAAG	0.417
AGACGCTA	-0.187
AATGGCAA	-0.0786
ATATTAGC	-0.112
ATAGCGGC	0.0624
AGGTCACG	-0.136
GGTAGGAC	0.0564
CCTAGCAC	0.00176
AATGACAC	-0.172
TAAGATTA	-0.0475
CTCGACGC	-0.03
CCATCTAC	-0.0683
CCAGATGG	-0.245
CGGAAATC	0.366

Sequence	PBM E-score
ACGTTCAC	-0.132
CTGTACAC	-0.2
ACTATAGC	-0.034
GGCTCAAA	0.151
CCAACCTC	-0.0741
ACTCGCCC	0.0517
CTTGGCGA	-0.24
AAGAGCTA	-0.27
AGACCAAC	-0.164
CAAGGATG	-0.0612
GCGATCAC	-0.0916
AAAAATAT	0.168
ACCATCGA	-0.304
GTCAGCAA	-0.154
AGCCATTA	0.0954
ACACGTTC	-0.107
TGACATCA	-0.106
AAGAAACC	0.06
TAATTAGA	-0.00025
AATGCCGG	0.313
CTACATAA	-0.0441
GTTGCAAC	-0.013
CATAGGCC	0.03
CCTGGAGC	-0.23
ACTATTAC	0.0521

Sequence	PBM E-score
TATAACCA	-0.0806
CTAAAGTC	-0.0387
ACGGCCGG	0.233
ACATTTGA	0.0359
TAAGCGAA	0.034
AATCTTGC	-0.0133
GCCAGCTA	-0.247
CGGGTGAA	0.322
GGCCGGAC	0.155
CCCGCGCG	0.246
GAGAGAAA	-0.102
TAACCGTA	0.137
GGACCCAA	0.0817
GCTATTCA	-0.0111
ATCCAGGG	-0.143
AGTCCGGG	0.254
CGTCGCCA	-0.267
CTGCCTAC	-0.153
ATTGATTG	-0.043
ATAAATTG	0.0776
GCTTTAAC	-0.138
CTAGGATA	-0.0673
ACGCTATG	-0.215
CCATTCCC	0.0811
CGTGAACG	-0.0933

Sequence	PBM E-score
AAAACGTA	-0.139
CGTTCACC	0.0563
GACTTTGC	-0.0991
AAAACATA	0.0282
AGTATCTC	-0.0258
AATACGTG	-0.144
GACGGATC	0.265
CCGGGACA	0.326
GCTGTACC	-0.123
AAGGTGCG	0.0131
AGGATTAG	-0.11
CGCACGCC	-0.0661
ATTTGTTC	0.152
ACTCTCTG	-0.262
GGTCGTAA	0.0174
AGGCATAC	-0.127
ACATTCAA	-0.0161
AATAACCT	-0.0451
GAGTGTCC	-0.0438
GAGGTGAC	-0.046
CCATCATA	0.0356
AGCTTACC	0.0828
AATGGCCC	-0.0222
CGGAATGC	0.364
ACGTCACG	-0.126

Sequence	PBM E-score
AAAGCAGT	-0.0701
GAGACAAC	-0.137
AACGAGGG	-0.23
CTTATCTC	0.0713
CAGACCTG	-0.17
AGGTTAAT	-0.0737
ACTCAGAA	-0.0399
AATGCCAA	-0.176
ACCTGCCC	-0.0259
AACGGTCC	0.129
AAACAAGC	-0.0198
GCTATACC	-0.0312
AGCACCTG	-0.24
CGCTCACC	-0.0562
AACTCTTA	-0.133
GGCCCGAC	0.255
GACATCGA	-0.0709
ATGTATTA	-0.0132
CGCACCGC	-0.00306
ATCGAGGA	-0.14
ACACTCAA	-0.155
AAGCTACC	0.0437
